The list shows a part of the results. Repeats are few or missing, and single values can be far off.
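Also: cell number obtained by counting DAPI-stained nuclei in high-throughput microscope images with image analysis software, screen run in 1,536-well plates.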

For one test, the system named is SkMel2. Description: cell count relative to DMSO control; melanoma cells; higher = more viable cells. As to conditions: library dose: low library concentration; 72 h.
For `OCc1c[nH]c2ccccc12` [Indole-3-carbinol] + CN(C)S(=O)(=O)c1ccc2c(c1)/C(=C/c1cc3c([nH]1)CCCC3)C(=O)N2 [SU6656] (first compound 0.8 µM, partner dose 0.4 µM), the cell count stood at 104%.
The compound `COCC[n+]1c2c(n(Cc3cnccn3)c1C)C(=O)c1ccccc1C2=O` + NC(=O)Nc1cc(-c2cccc(F)c2)sc1C(=O)N[C@H]1CCCNC1 [AZD7762] (first compound 0.0004 µM, partner dose 0.02 µM) gave a cell count of 94.1%.
`Nc1cccc2c1CN(C1CCC(=O)NC1=O)C2=O` (centres undefined) [lenalidomide] + O=C(O)c1ccc(-c2c[nH]c3ncc(-c4ccccc4)cc23)cc1C1CCCC1 [GSK650394] (first compound 1 µM, partner dose 0.16 µM) gave a cell count of 102%.
`COCC[n+]1c2c(n(Cc3cnccn3)c1C)C(=O)c1ccccc1C2=O` + Cn1cncc1[C@@](N)(c1ccc(Cl)cc1)c1ccc2c(c1)c(-c1cccc(Cl)c1)cc(=O)n2C [tipifarnib] (first compound 0.0004 µM, partner dose 0.01 µM) gave a cell count of 76.7%.

Another test relates to SkMel30. The test is described as above. As to conditions: library dose: low library concentration; 72 h.
In turn, `O=C(CCCCCCC(=O)Nc1ccccc1)NO` [vorinostat] + Cn1cncc1[C@@](N)(c1ccc(Cl)cc1)c1ccc2c(c1)c(-c1cccc(Cl)c1)cc(=O)n2C [tipifarnib] (first compound 0.08 µM, partner dose 0.01 µM) displayed a cell count of 108%.
Compound `O=C(CCCCCCC(=O)Nc1ccccc1)NO` [vorinostat] + O=C(Nc1cccc(Cl)c1)Nc1ncc(CCNc2ncnc3ccsc23)s1 [SNS314] (first compound 0.08 µM, partner dose 0.0008 µM) yielded a cell count of 112%.
`Nc1cccc2c1CN(C1CCC(=O)NC1=O)C2=O` (centres undefined) [lenalidomide] + Cn1cncc1[C@@](N)(c1ccc(Cl)cc1)c1ccc2c(c1)c(-c1cccc(Cl)c1)cc(=O)n2C [tipifarnib] (first compound 1 µM, partner dose 0.01 µM) displayed a cell count of 96.1%.
The same measure, in the same setting: for `COCC[n+]1c2c(n(Cc3cnccn3)c1C)C(=O)c1ccccc1C2=O` + CC(C)(C)c1cnc(CSc2cnc(NC(=O)C3CCNCC3)s2)o1 [SNS-032] (first compound 0.0004 µM, partner dose 0.01 µM) the value was 89.5%.
In the case of `OCc1c[nH]c2ccccc12` [Indole-3-carbinol] + COC(=O)c1sccc1S(=O)(=O)Nc1ccc(Nc2ccccc2)cc1OC [GSK0660] (first compound 0.8 µM, partner dose 1 µM), the cell count turned out to be 108%.
For `COCC[n+]1c2c(n(Cc3cnccn3)c1C)C(=O)c1ccccc1C2=O` + CN(NC(=O)CC(=O)NN(C)C(=S)c1ccccc1)C(=S)c1ccccc1 [STA4783] (first compound 0.0004 µM, partner dose 0.006 µM), the cell count was found to be 73.2%.
`O=C(CCCCCCC(=O)Nc1ccccc1)NO` [vorinostat] + CO[C@@H]1[C@H](N(C)C(=O)c2ccccc2)C[C@H]2O[C@]1(C)n1c3ccccc3c3c4c(c5c6ccccc6n2c5c31)C(=O)NC4 [Midostaurin] (first compound 0.08 µM, partner dose 0.08 µM) came in with a cell count of 106%.
Still for that read-out and setting: with `OCc1c[nH]c2ccccc12` [Indole-3-carbinol] + O=S(=O)(c1ccccc1)N(CC(F)(F)F)c1ccc(C(O)(C(F)(F)F)C(F)(F)F)cc1 [T0901317] (first compound 0.8 µM, partner dose 1.4 µM) the figure was 142%.
On to `C#Cc1cccc(Nc2ncnc3cc(OCCOC)c(OCCOC)cc23)c1` [erlotinib] + CC(C)(C)c1cnc(CSc2cnc(NC(=O)C3CCNCC3)s2)o1 [SNS-032] (first compound 0.8 µM, partner dose 0.01 µM), for which the cell count stood at 91.6%.
The same measure, in the same setting: for `OCc1c[nH]c2ccccc12` [Indole-3-carbinol] + Oc1cc(-c2nc(-c3ccccc3)[nH]c2-c2ccncc2)ccc1Cl [L779450] (first compound 0.8 µM, partner dose 0.2 µM) the value was 87%; for `Clc1ccc(Nc2nnc(Cc3ccncc3)c3ccccc23)cc1` [vatalanib] + O=C1NC(=O)/C(=C/c2ccc(-c3ccc(F)cc3O)o2)S1 [AS252424] (first compound 2 µM, partner dose 1 µM), 85.3%; for `C#Cc1cccc(Nc2ncnc3cc(OCCOC)c(OCCOC)cc23)c1` [erlotinib] + CN(C)S(=O)(=O)c1ccc2c(c1)/C(=C/c1cc3c([nH]1)CCCC3)C(=O)N2 [SU6656] (first compound 0.8 µM, partner dose 0.4 µM), 73.4%.
On the same count and under the same terms, for `Clc1ccc(Nc2nnc(Cc3ccncc3)c3ccccc23)cc1` [vatalanib] + O=C(Nc1cccc(Cl)c1)Nc1ncc(CCNc2ncnc3ccsc23)s1 [SNS314] (first compound 2 µM, partner dose 0.0008 µM) the value was 90.8%; for `C#Cc1cccc(Nc2ncnc3cc(OCCOC)c(OCCOC)cc23)c1` [erlotinib] + Cc1ccc(NC(=O)c2cccc(N(C)C)c2)cc1NC(=O)c1ccc(O)cc1 [ZM336372] (first compound 0.8 µM, partner dose 2 µM), 85%; for `Clc1ccc(Nc2nnc(Cc3ccncc3)c3ccccc23)cc1` [vatalanib] + CC1(C)NC(=O)N(c2ccc([N+](=O)[O-])c(C(F)(F)F)c2)C1=O [nilutamide] (first compound 2 µM, partner dose 1 µM), 106%.
Turning to `Clc1ccc(Nc2nnc(Cc3ccncc3)c3ccccc23)cc1` [vatalanib] + Cc1ccc(NC(=O)c2cccc(N(C)C)c2)cc1NC(=O)c1ccc(O)cc1 [ZM336372] (first compound 2 µM, partner dose 2 µM), the cell count is 83.6%.
Same read-out and setting: for `C#Cc1cccc(Nc2ncnc3cc(OCCOC)c(OCCOC)cc23)c1` [erlotinib] + COc1cc2c(Oc3ccc4[nH]c(C)cc4c3F)ncnc2cc1OCCCN1CCCC1 [cediranib] (first compound 0.8 µM, partner dose 0.4 µM) the value was 87.3%; for `Clc1ccc(Nc2nnc(Cc3ccncc3)c3ccccc23)cc1` [vatalanib] + CCc1ccc(CCOc2ccc(CC3SC(=O)NC3=O)cc2)nc1 [pioglitazone] (first compound 2 µM, partner dose 2 µM), 99.1%; for `O=C(CCCCCCC(=O)Nc1ccccc1)NO` [vorinostat] + COc1cc2c(Oc3ccc4[nH]c(C)cc4c3F)ncnc2cc1OCCCN1CCCC1 [cediranib] (first compound 0.08 µM, partner dose 0.4 µM), 102%.
Still for that read-out and setting: with `Nc1cccc2c1CN(C1CCC(=O)NC1=O)C2=O` (centres undefined) [lenalidomide] + O=C(Nc1cccc(Cl)c1)Nc1ncc(CCNc2ncnc3ccsc23)s1 [SNS314] (first compound 1 µM, partner dose 0.0008 µM) the figure was 94.8%; with `Nc1cccc2c1CN(C1CCC(=O)NC1=O)C2=O` (centres undefined) [lenalidomide] + O=C(CCCCCCC(=O)Nc1ccccc1)NO [vorinostat] (first compound 1 µM, partner dose 0.08 µM), 101%.
As for `COCC[n+]1c2c(n(Cc3cnccn3)c1C)C(=O)c1ccccc1C2=O` + COc1cc(Nc2ncc(F)c(Nc3ccc4c(n3)NC(=O)C(C)(C)O4)n2)cc(OC)c1OC [Tamatinib] (first compound 0.0004 µM, partner dose 0.4 µM), the cell count came to 85.3%.
On the same count and under the same terms, with `O=C(CCCCCCC(=O)Nc1ccccc1)NO` [vorinostat] + O=C(O)c1ccc(-c2c[nH]c3ncc(-c4ccccc4)cc23)cc1C1CCCC1 [GSK650394] (first compound 0.08 µM, partner dose 0.16 µM) the figure was 99.5%; with `Clc1ccc(Nc2nnc(Cc3ccncc3)c3ccccc23)cc1` [vatalanib] + O=C(O)C(=O)Nc1sc2c(c1C(=O)O)CCNC2 [TCS401] (first compound 2 µM, partner dose 1.66667 µM), 102%.
Compound `Clc1ccc(Nc2nnc(Cc3ccncc3)c3ccccc23)cc1` [vatalanib] + COc1ccc(COc2ccc(Cc3cnc(N)nc3N)cc2OC)cc1 [GW2580] (first compound 2 µM, partner dose 1 µM) gave a cell count of 98.6%.
`Clc1ccc(Nc2nnc(Cc3ccncc3)c3ccccc23)cc1` [vatalanib] + Oc1cc(-c2nc(-c3ccccc3)[nH]c2-c2ccncc2)ccc1Cl [L779450] (first compound 2 µM, partner dose 0.2 µM) returned a cell count of 92.8%.
The same measure, in the same setting: with `Clc1ccc(Nc2nnc(Cc3ccncc3)c3ccccc23)cc1` [vatalanib] + O=C(O)c1ccc(-c2c[nH]c3ncc(-c4ccccc4)cc23)cc1C1CCCC1 [GSK650394] (first compound 2 µM, partner dose 0.16 µM) the figure was 108%; with `OCc1c[nH]c2ccccc12` [Indole-3-carbinol] + Cc1cc([N+](=O)[O-])ccc1NS(=O)(=O)c1cc(Cl)ccc1Cl [FH535] (first compound 0.8 µM, partner dose 1 µM), 91.8%.
For `Clc1ccc(Nc2nnc(Cc3ccncc3)c3ccccc23)cc1` [vatalanib] + CC(C)(C)c1cnc(CSc2cnc(NC(=O)C3CCNCC3)s2)o1 [SNS-032] (first compound 2 µM, partner dose 0.01 µM), the cell count is 101%.
On the same count and under the same terms, with `O=C(CCCCCCC(=O)Nc1ccccc1)NO` [vorinostat] + C[C@@H]1CCN(C(=O)CC#N)C[C@@H]1N(C)c1ncnc2[nH]ccc12 [CP690550] (first compound 0.08 µM, partner dose 1 µM) the figure was 127%.
